We go through 22 molecules from article PMC12136788.

Some of the results follow.

The chains are these.
B1: 18138343_18138463_2469_3pUTR_ENSMUSG00000026740_ENSMUST00000166495|mouse|control|control (ssRNA)
RNA: GGGAGUUCUACAGUCCGACGAUCUUAGAUCCAUGUAUUCAUGUGCAUGUGUCUAUGUGGGCUCGGAUGUGUGUGCUGUACCACAAUAUGAAUGCAGAGGUCAGAGGACAGCUCCUGUGAACAUGUGCUUGCUGGAGAGUGAGUCAACAGAGGAUUGAGCAUCA
B2: chr2:73747962:73747963:-_ENSMUSG00000018770_ENSMUST00000018914|mus_hu|FALSE|FALSE (ssRNA)
RNA: GGGAGUUCUACAGUCCGACGAUCGCCCUCUCCAGUCCUACUAGCCUCUGGUCGAGAUAACACUGAUGCAGAAAUUGGUCUGUAUGCAACUCUGGAUCCAGCUCGGAUCAGAGAGGGGGUGCAGGCGAGCUUGGCGCAGGCGAACAACAGAGGAUUGAGCAUCA
B3: chr4:99997526:99997527:-_ENSG00000197894_ENST00000296412|hu_mus|FALSE|FALSE (ssRNA)
RNA: GGGAGUUCUACAGUCCGACGAUCGGAGUAAUCCACGCCCCCAUCUGUCAUCUCAACGAGGACUUCCUGGAUGGAUUUACUGAAGUCUUGGGGGCUAAUACAUUCAGAGGCUCCAAAUUCUUUGGCCUUUGCGAAUUUAUCUUUCAACAGAGGAUUGAGCAUCA
B4: chrX:70927055:70927056:+_ENSMUSG00000019558_ENSMUST00000114465|mus_mus|motif|central (ssRNA)
RNA: GGGAGUUCUACAGUCCGACGAUCAGAGGCUGUGUUUACUUCUGGUAUUCACCUUCACUAAGGGAUAAGAGAUCUACAGACCGGCACAUACACACACAUACACACACACACACACACACACACACAGAGGGGGGUGUGCACUCACAACAGAGGAUUGAGCAUCA
B5: chr2:153237265:153237266:-_ENSMUSG00000061411_ENSMUST00000109784|mus_mus|mus_mus_mus_hu_False|28_108 (ssRNA)
RNA: GGGAGUUCUACAGUCCGACGAUCAAAAAAAAGAAAAAAAAAGUGUCCUUGUGCCCAAAGUCUCAGGUGCUUGGAGUGUGGCUAGAAACAGCUCUUUUGGAUCCCACCUCUUUCAGAAACAAAAUGUACCAACUGGUGAGGCAGCAACAGAGGAUUGAGCAUCA
B6: 84551238_84551358_529_5pUTR_ENSMUSG00000034075_ENSMUST00000035840|mouse|control|control (ssRNA)
RNA: GGGAGUUCUACAGUCCGACGAUCGUGAUUUAAUUUUAUUUAUGUCUCUCUUGAUGGACAAAGUUGGAUAACAGCUGUUACAGGGUUGAGUUGUAAAUCCUUUUCUUUGAAUGGGGAGAAAAAAACAGACAGCAGUAUUGCCUGCAACAGAGGAUUGAGCAUCA
B7: 44922105_44922225_2795_3pUTR_ENSG00000146676_ENST00000395699|human|control|control (ssRNA)
RNA: GGGAGUUCUACAGUCCGACGAUCUCUAUUUUUUUAAAAAAGCCUAAUUUUAUGUACACAAUUAUUUCCCGCCCUCUCAGCCACAAAUACAUGAAAACCUUUUUGUAUAUUACUCAUUUCCCAAUAAAUACAAAAAGAUUGUAUCAACAGAGGAUUGAGCAUCA
B8: chr13:81889239:81889240:+_ENSMUSG00000051098_ENSMUST00000057598|mus_mus|FALSE|FALSE (ssRNA)
RNA: GGGAGUUCUACAGUCCGACGAUCCAUGGCAAAAGUAGACACUUUGUGGCAUAUCCCAGCUUUUGAAAUAUAGUUAGAAGCUAAGCGAAACAGCCUUUCGGCACCAAAGGUAUUGAAGUGCCCAGGAAGCACCUUCUCCACAAGCAACAGAGGAUUGAGCAUCA
B9: chr3:98531265:98531266:-_ENSG00000057019_ENST00000326840|hu_hu|motif|central (ssRNA)
RNA: GGGAGUUCUACAGUCCGACGAUCUCCGAGCAGCUCCAUUUUCAUGGCAAUUUUCUGCUGCCAUUGGGUAGGAUUCACUCGGAUAAAACGUGCAAUAAUUGGUGGCAAAAAGUUAUUACGCACAUCCUGGUGAUAAUCUUUGUUCAACAGAGGAUUGAGCAUCA
B10: 36543091_36549158_1918_CDS_ENSMUSG00000032116_ENSMUST00000120381|mouse|control|control (ssRNA)
RNA: GGGAGUUCUACAGUCCGACGAUCUCCAAUCCGGACCAUCCAAAGAAACUUGUUGAUAUCAUCCGAAGAAUACCCAGUAAGGCCUCCAAAAAUGACAAGCACAUAGCUGACAUCAAGCUCCCUCAUGAUUUCAUAGGCUUUUUCCAACAGAGGAUUGAGCAUCA
B11: 26721622_26723578_1361_CDS_ENSMUSG00000024921_ENSMUST00000025862|mouse|control|control (ssRNA)
RNA: GGGAGUUCUACAGUCCGACGAUCUGCCUCACGCAGGGUCUGGCGCUUGCUCCGCUUAUAUGCUUUGGAGUUGAGGGCCGUCUCCAGGGUGGUGUCCCUCCGCAUGCAGGCCACCACCUCCUGUCUCAGCUGACGUUGGAAGUUCAACAGAGGAUUGAGCAUCA
B12: chr6:40197388:40197389:+_ENSMUSG00000057716_ENSMUST00000061740|mus_mus|mus_mus_mus_hu_False|28_78 (ssRNA)
RNA: GGGAGUUCUACAGUCCGACGAUCGAGACACUGGGGUGGAUUUAUUCCACCUCUGUUUGCUAGCCUCCCACUAAGACUGUUAUUUUGGGAUUCAUGGCCUUGAAUAUCAAGAGGAAAAGGAAGAGGAUGGAAAGAGUCAAGAGUCAACAGAGGAUUGAGCAUCA
B13: chr11:120326911:120326912:-_ENSMUSG00000057594_ENSMUST00000124970|mus_mus|FALSE|FALSE (ssRNA)
RNA: GGGAGUUCUACAGUCCGACGAUCAUCACUUGCAGAUACACUGGGUGGCCUGCUCCUAUCAAACACCUCAGGCUCUCAUGCAUUUGCCUCCUAGGCACUGGGUGGGGUCAGCCAUACUUCUCCAUCUUGCUGUCAACUGCUGUGCAACAGAGGAUUGAGCAUCA
B14: chr4:95690885:95690886:+_ENSMUSG00000028572_ENSMUST00000156910|mus_mus|mus_mus_mus_hu_False|1_78 (ssRNA)
RNA: GGGAGUUCUACAGUCCGACGAUCUUUAGAAAAUGUUAAAUACCAUGCUAAAAUAUUGUAAUUUUAAUAUUUUAUUUUACCAGAAGUCACAGGCAAGCAGACACUACAAGAAUAUAUGAAAAUGAAACUCAACAAUAAAAUGUACAACAGAGGAUUGAGCAUCA
B15: chr3:160150142:160150143:+_ENSG00000113810_ENST00000344722|hu_hu|FALSE|FALSE (ssRNA)
RNA: GGGAGUUCUACAGUCCGACGAUCAAAACCUGCCAUAAAUUCAUUAAGCCUUUGUUUCCGAAGAUCUUCAUAUGCCUGUCUAAAACUGUCUCUUUCAUAAGUAAUUUUGUCCAAUUCUGCUACCCGUUGCAAAUACAAUUCUUCCAACAGAGGAUUGAGCAUCA
B16: chr22:32879901:32879902:+_ENSG00000100225_ENST00000397426|hu_mus|hu_hu_hu_mus_False|8_98 (ssRNA)
RNA: GGGAGUUCUACAGUCCGACGAUCCUCUUCCAUACUCGCAUUAUCUUGAAUUGACUCAGCUUCAACAUUUUGACUAGGCCCUUCCAUACUGUCAUCAGUCCAGGCAUCAAAUGGGGUGGCCUGUCCUUGGAAUGAAUCAGUCCCCAACAGAGGAUUGAGCAUCA
B17: chr17:61683753:61683754:+_ENSG00000136463_ENST00000258975|hu_hu|motif|central (ssRNA)
RNA: GGGAGUUCUACAGUCCGACGAUCAAAAGAGUGACGAGCUCCUACAGCCAUCACUCCUCCAUUCUUAUUCAGGAUAUGUCGGAUGUCUGCUUGGCACUUGUGGCUACUGUUAGAUAAUGCCUCGAUGAGCAGAGAAGAGCCACCCAACAGAGGAUUGAGCAUCA
B18: chr17:65740002:65740003:+_ENSG00000130935_ENST00000581375|hu_hu|hu_hu_hu_mus_False|58_108 (ssRNA)
RNA: GGGAGUUCUACAGUCCGACGAUCAACCCGUUCUUGCUCCCUGGACGAACAGGAAGAUUCAUAUUAAAAAAAAUAUAUGUCUAUGAAGUUAGGUGUGGUGGCCACACCUUUACUCCCAGCACUUUGGGAGGUGGAUCUCUGAGUCAACAGAGGAUUGAGCAUCA
B19: chr2:5814250:5814251:-_ENSMUSG00000025816_ENSMUST00000102981|mus_hu|mus_mus_mus_hu_True|28_28 (ssRNA)
RNA: GGGAGUUCUACAGUCCGACGAUCUUCCUUUCCGGUUUCUGAAUUUCUGGUAGAACUGCACAGAAUGGUUUGAUAACUUCUAAAAAUUUGAUGCCCAUGGCUGCUGCUCAGCACACCCAGGGGGAAACCGCGGCCUCGGCGCUGCAACAGAGGAUUGAGCAUCA
B20: chr1:161326577:161326578:+_ENSG00000143252_ENST00000367975|hu_mus|FALSE|FALSE (ssRNA)
RNA: GGGAGUUCUACAGUCCGACGAUCUAGCAAGUGUCGGAUCCCAUUCAGUGAGUGGUACAUGAGCGGGAAGACAAGCACAAACUUAGCCGAGUAGAUCAGUGUUGGCCCCAAACACAGGGACUUCACAAACAUCAAAUAUGACUCCAACAGAGGAUUGAGCAUCA
B21: chr15:98516890:98516891:+_ENSG00000140450_ENST00000268042|hu_hu|FALSE|FALSE (ssRNA)
RNA: GGGAGUUCUACAGUCCGACGAUCAAUAAUAAAAAUAAGAAAGCUUUCAUAGUUAACUUACCAAAAACAUAACGCUUGCCUAUUGUUUCUUACUGUGCAAAACAAAAACAAAGUUUUGCCCACAGAAGGAUUUUGUGCACCAAACAACAGAGGAUUGAGCAUCA
B22: chr19:16212804:16212805:+_ENSG00000167460_ENST00000300933|hu_mus|hu_hu_hu_mus_False|8_68 (ssRNA)
RNA: GGGAGUUCUACAGUCCGACGAUCAACAAUUCUGGAGUGAAGGAAAGAUGUAACAUGGAACAGCAUUCCAUCUAUUACAGAAGGCACAUGGGCAACAAUGAUCACCCCAGCAUUCUCGCUUGGAAUGUGCUUGAGAAAUCUGUUCAACAGAGGAUUGAGCAUCA

This assay addresses T1, UNK ZnF1-3 (human, UniProt Q9C0B0 31-174).
T1 sequence: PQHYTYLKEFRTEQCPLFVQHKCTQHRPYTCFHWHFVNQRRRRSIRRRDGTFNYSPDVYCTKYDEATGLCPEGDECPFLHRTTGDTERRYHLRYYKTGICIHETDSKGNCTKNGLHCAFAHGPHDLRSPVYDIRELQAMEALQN
Description: nsRBNS (natural sequence RNA bind-n-seq); RBNS binding buffer (assumed for nsRBNS): 25 mM Tris pH 7.5, 150 mM KCl, 3 mM MgCl2, 0.01% Triton X-100, 500 ug/ml BSA, 20 U/ml SUPERase-In, 4 C; UNK is unkempt and MSI1 is Musashi-1; names of the RNAs are library labels; protein concentration not given here; high values mean tight binding.
Consider B1, for which the binding signal amounted to 1.27 enrichment R.

B2 had a binding signal of 0.811 enrichment R.

Take B3: the binding signal is 0.658 enrichment R.

Regarding B4, the binding signal is 0.839 enrichment R.

Regarding B5, the binding signal is 2.05 enrichment R.

Turning to B6, the binding signal came to 1.43 enrichment R.

For the molecule B7, the binding signal is 1.76 enrichment R.

B8: the binding signal was determined as 1.22 enrichment R.

Turning to B9, the binding signal amounted to 0.388 enrichment R.

B10 had a binding signal of 1.27 enrichment R.

As to B11, the binding signal stood at 0.667 enrichment R.

With B12, the binding signal came to 1.32 enrichment R.

For B13, the binding signal amounted to 0.823 enrichment R.

With B14, the binding signal was determined as 1.83 enrichment R.

With B15, the binding signal was 1.43 enrichment R.

On to B16, for which the binding signal came to 1.14 enrichment R.

Consider B17, for which the binding signal is 0.864 enrichment R.

Molecule B18 gave a binding signal of 1.14 enrichment R.

As for B19, the binding signal stood at 1.07 enrichment R.

Molecule B20 showed a binding signal of 0.978 enrichment R.

The molecule B21 displayed a binding signal of 1.5 enrichment R.

Consider B22, for which the binding signal came out at 0.955 enrichment R.
